{"source": "the antibiotic and cytotoxicity screens of Wong et al. (2023)", "key": {"[1]": {"system": "HSkMC (human skeletal muscle cells)", "assay": "cytotoxicity call (relative viability < 0.9)", "conditions": "10 µM"}, "[2]": {"system": "HepG2", "assay": "cytotoxicity call (relative viability < 0.9)", "conditions": "10 µM"}, "[3]": {"system": "S. aureus RN4220", "assay": "growth inhibition call (relative growth <= 0.2)", "conditions": "50 µM"}}, "note": "This is one part of the list.", "data": [{"smiles": "CC(=O)N1CCn2c(-c3cnn(C)c3)cnc2C12CCN(S(=O)(=O)C1CC1)CC2", "values": [{"measurement": "cytotoxicity call", "setting": "[1]", "value": "inactive"}, {"measurement": "cytotoxicity call", "setting": "[2]", "value": "inactive"}, {"measurement": "growth inhibition call", "setting": "[3]", "value": "inactive"}]}, {"smiles": "COc1ccc(NC(=O)Nc2ccc3c(c2)CC(=O)N([C@H](C)CO)C[C@H](C)[C@@H](CN(C)Cc2ccc(Cl)c(Cl)c2)O3)cc1", "values": [{"measurement": "cytotoxicity call", "setting": "[1]", "value": "inactive"}, {"measurement": "cytotoxicity call", "setting": "[2]", "value": "inactive"}, {"measurement": "growth inhibition call", "setting": "[3]", "value": "inactive"}]}, {"smiles": "Cc1noc(C)c1S(=O)(=O)Nc1ccc2c(c1)C(=O)N([C@@H](C)CO)C[C@@H](C)[C@H](CN(C)S(=O)(=O)c1ccc(F)cc1)O2", "values": [{"measurement": "cytotoxicity call", "setting": "[1]", "value": "inactive"}, {"measurement": "cytotoxicity call", "setting": "[2]", "value": "inactive"}, {"measurement": "growth inhibition call", "setting": "[3]", "value": "inactive"}]}, {"smiles": "Cc1nc2ccccc2n1Cc1ccc(Cl)cc1", "values": [{"measurement": "cytotoxicity call", "setting": "[1]", "value": "inactive"}, {"measurement": "cytotoxicity call", "setting": "[2]", "value": "active"}, {"measurement": "growth inhibition call", "setting": "[3]", "value": "inactive"}]}, {"smiles": "COc1ccc(NC(=O)Nc2ccc3c(c2)C(=O)N([C@H](C)CO)C[C@@H](C)[C@H](CN(C)C(=O)Cc2ccccc2)OCCCC[C@H](C)O3)cc1", "values": [{"measurement": "cytotoxicity call", "setting": "[1]", "value": "inactive"}, {"measurement": "cytotoxicity call", "setting": "[2]", "value": "inactive"}, {"measurement": "growth inhibition call", "setting": "[3]", "value": "inactive"}]}, {"smiles": "COc1ccc(S(=O)(=O)N(C)C[C@@H]2Oc3c(cccc3N(C)C)C(=O)N([C@@H](C)CO)C[C@H]2C)cc1", "values": [{"measurement": "cytotoxicity call", "setting": "[1]", "value": "inactive"}, {"measurement": "cytotoxicity call", "setting": "[2]", "value": "inactive"}, {"measurement": "growth inhibition call", "setting": "[3]", "value": "inactive"}]}, {"smiles": "C[C@@H]1CN([C@@H](C)CO)C(=O)c2c(c3ccccc3n2C)-c2ccccc2CO[C@H]1CN(C)Cc1cccc(C(=O)O)c1", "values": [{"measurement": "cytotoxicity call", "setting": "[1]", "value": "inactive"}, {"measurement": "cytotoxicity call", "setting": "[2]", "value": "inactive"}, {"measurement": "growth inhibition call", "setting": "[3]", "value": "inactive"}]}, {"smiles": "CC(=O)N(C)C[C@@H]1Oc2ncc(C#C[C@H](C)O)cc2C(=O)N([C@H](C)CO)C[C@H]1C", "values": [{"measurement": "cytotoxicity call", "setting": "[1]", "value": "inactive"}, {"measurement": "cytotoxicity call", "setting": "[2]", "value": "inactive"}, {"measurement": "growth inhibition call", "setting": "[3]", "value": "inactive"}]}, {"smiles": "C[C@H]1CN([C@@H](C)CO)C(=O)Cc2cc(NS(C)(=O)=O)ccc2O[C@@H]1CN(C)Cc1ccc(C(=O)Nc2ccccc2N)cc1", "values": [{"measurement": "cytotoxicity call", "setting": "[1]", "value": "inactive"}, {"measurement": "cytotoxicity call", "setting": "[2]", "value": "inactive"}, {"measurement": "growth inhibition call", "setting": "[3]", "value": "inactive"}]}, {"smiles": "C[C@@H]1CN([C@H](C)CO)C(=O)Cc2cc(NC(=O)Nc3cccc4ccccc34)ccc2O[C@@H]1CN(C)S(=O)(=O)c1cccs1", "values": [{"measurement": "cytotoxicity call", "setting": "[1]", "value": "inactive"}, {"measurement": "cytotoxicity call", "setting": "[2]", "value": "inactive"}, {"measurement": "growth inhibition call", "setting": "[3]", "value": "inactive"}]}, {"smiles": "CC(C)CC#Cc1ccc2c(c1)O[C@@H](CN(C)S(=O)(=O)c1ccc(F)cc1)[C@H](C)CN([C@@H](C)CO)S2(=O)=O", "values": [{"measurement": "cytotoxicity call", "setting": "[1]", "value": "inactive"}, {"measurement": "cytotoxicity call", "setting": "[2]", "value": "inactive"}, {"measurement": "growth inhibition call", "setting": "[3]", "value": "inactive"}]}, {"smiles": "C[C@@H]1CCCCO[C@H](CN(C)Cc2ccccc2)[C@@H](C)CN([C@@H](C)CO)C(=O)c2cc(NC(=O)Nc3cccc4ccccc34)ccc2O1", "values": [{"measurement": "cytotoxicity call", "setting": "[1]", "value": "active"}, {"measurement": "cytotoxicity call", "setting": "[2]", "value": "active"}, {"measurement": "growth inhibition call", "setting": "[3]", "value": "inactive"}]}, {"smiles": "CC(=O)NCCc1ccc(O)c(-c2c(O)c(O)c3c(c2O)C(=O)c2c(cc(O)c(C(=O)O)c2C(=O)O)C3=O)c1", "values": [{"measurement": "cytotoxicity call", "setting": "[1]", "value": "inactive"}, {"measurement": "cytotoxicity call", "setting": "[2]", "value": "inactive"}, {"measurement": "growth inhibition call", "setting": "[3]", "value": "inactive"}]}, {"smiles": "COCC#Cc1ccc2c(c1)O[C@H](CN(C)C(=O)Nc1ccccc1F)[C@@H](C)CN([C@H](C)CO)S2(=O)=O", "values": [{"measurement": "cytotoxicity call", "setting": "[1]", "value": "inactive"}, {"measurement": "cytotoxicity call", "setting": "[2]", "value": "inactive"}, {"measurement": "growth inhibition call", "setting": "[3]", "value": "inactive"}]}, {"smiles": "COc1ccc(S(=O)(=O)N(C)C[C@@H]2Oc3ccc(NS(=O)(=O)c4cccs4)cc3C(=O)N([C@@H](C)CO)C[C@H]2C)cc1", "values": [{"measurement": "cytotoxicity call", "setting": "[1]", "value": "inactive"}, {"measurement": "cytotoxicity call", "setting": "[2]", "value": "inactive"}, {"measurement": "growth inhibition call", "setting": "[3]", "value": "inactive"}]}, {"smiles": "COc1ccc(NC(=O)Nc2ccc3c(c2)CC(=O)N([C@H](C)CO)C[C@@H](C)[C@H](CN(C)Cc2ccc(Oc4ccccc4)cc2)O3)cc1", "values": [{"measurement": "cytotoxicity call", "setting": "[1]", "value": "inactive"}, {"measurement": "cytotoxicity call", "setting": "[2]", "value": "active"}, {"measurement": "growth inhibition call", "setting": "[3]", "value": "inactive"}]}, {"smiles": "CN(Cc1ccccc1)C(=O)[C@H](Cc1ccc2ccccc2c1)NC(=O)[C@@H]1CCCN1C(=O)Nc1ccccc1[N+](=O)[O-]", "values": [{"measurement": "cytotoxicity call", "setting": "[1]", "value": "inactive"}, {"measurement": "cytotoxicity call", "setting": "[2]", "value": "inactive"}, {"measurement": "growth inhibition call", "setting": "[3]", "value": "inactive"}]}, {"smiles": "C[C@H](CO)N1C[C@H](C)[C@H](CN(C)Cc2ccc(Oc3ccccc3)cc2)Oc2ccc(NS(=O)(=O)c3cccs3)cc2C1=O", "values": [{"measurement": "cytotoxicity call", "setting": "[1]", "value": "inactive"}, {"measurement": "cytotoxicity call", "setting": "[2]", "value": "inactive"}, {"measurement": "growth inhibition call", "setting": "[3]", "value": "inactive"}]}, {"smiles": "Cc1ccc(S(=O)(=O)Nc2ccc3c(c2)CC(=O)N([C@@H](C)CO)C[C@@H](C)[C@@H](CN(C)S(=O)(=O)c2c(C)noc2C)O3)cc1", "values": [{"measurement": "cytotoxicity call", "setting": "[1]", "value": "inactive"}, {"measurement": "cytotoxicity call", "setting": "[2]", "value": "inactive"}, {"measurement": "growth inhibition call", "setting": "[3]", "value": "inactive"}]}, {"smiles": "C[C@H]1CN([C@@H](C)CO)C(=O)c2cccc(NC(=O)Nc3ccc(F)cc3)c2O[C@@H]1CN(C)CC1CCCCC1", "values": [{"measurement": "cytotoxicity call", "setting": "[1]", "value": "inactive"}, {"measurement": "cytotoxicity call", "setting": "[2]", "value": "inactive"}, {"measurement": "growth inhibition call", "setting": "[3]", "value": "inactive"}]}, {"smiles": "OCc1ccc(O)cc1", "values": [{"measurement": "cytotoxicity call", "setting": "[1]", "value": "inactive"}, {"measurement": "cytotoxicity call", "setting": "[2]", "value": "inactive"}, {"measurement": "growth inhibition call", "setting": "[3]", "value": "inactive"}]}, {"smiles": "CNC[C@@H]1OCCCC[C@@H](C)Oc2ccc(NS(=O)(=O)c3cn(C)cn3)cc2C(=O)N([C@H](C)CO)C[C@H]1C", "values": [{"measurement": "cytotoxicity call", "setting": "[1]", "value": "inactive"}, {"measurement": "cytotoxicity call", "setting": "[2]", "value": "inactive"}, {"measurement": "growth inhibition call", "setting": "[3]", "value": "inactive"}]}, {"smiles": "C[C@@H]1CCCCO[C@@H](CN(C)C)[C@H](C)CN([C@@H](C)CO)C(=O)c2cc(NS(=O)(=O)c3cn(C)cn3)ccc2O1", "values": [{"measurement": "cytotoxicity call", "setting": "[1]", "value": "inactive"}, {"measurement": "cytotoxicity call", "setting": "[2]", "value": "inactive"}, {"measurement": "growth inhibition call", "setting": "[3]", "value": "inactive"}]}, {"smiles": "CN(C)CCCNC(=O)C[C@H]1CC[C@@H](NS(=O)(=O)c2ccccc2)[C@H](CO)O1", "values": [{"measurement": "cytotoxicity call", "setting": "[1]", "value": "inactive"}, {"measurement": "cytotoxicity call", "setting": "[2]", "value": "inactive"}, {"measurement": "growth inhibition call", "setting": "[3]", "value": "inactive"}]}, {"smiles": "C[C@@H]1CN([C@H](C)CO)C(=O)c2cc(NS(C)(=O)=O)ccc2O[C@@H](C)CCCCO[C@@H]1CN(C)Cc1ccncc1", "values": [{"measurement": "cytotoxicity call", "setting": "[1]", "value": "inactive"}, {"measurement": "cytotoxicity call", "setting": "[2]", "value": "inactive"}, {"measurement": "growth inhibition call", "setting": "[3]", "value": "inactive"}]}]}
